According to the supplement of paper PMC11417369:
± gives the standard deviation of the averaged measurements. The list shows a part of the results.

What follows are sequences tested on PfAP2-I AP2 domain 3 (GST-tagged) (assay: gcPBM binding intensity (ln(normalized median fluorescence intensity)); higher = stronger DNA binding).
Outline: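 Each value is the highest Masliner-normalised natural-log median intensity across replicate spots of either orientation of a probe. The probes were primer-extended double-stranded 36-bp intergenic genomic sequences on an Agilent 4 × 180k array, alongside negative controls, exposed for 1 h to GST-tagged P. falciparum DNA-binding domains expressed in E. coli. Bound protein was picked up with Alexa488 anti-GST antibody and scanned at 488 nm.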
In the case of “TACGTATTATAAATATGTACATATAATATGTATATA [XGTACX_site468]”, the “gcPBM binding intensity (ln)” value is reported as 7.54 ± 0.19.
For “CAAAAACATACCTACACACACAATATGTATATATAA [CACACA_site3514]”, the “gcPBM binding intensity (ln)” value was 7.58 ± 0.49.
With “TGATAACCAAAAAGGGGTACATACACAAAAAAATAC [XGTACX_site1254]” the “gcPBM binding intensity (ln)” value was 8.66 ± 0.28.
For “AACAACATTTGATAAACACACAGAAGTATAAATATA [CACACA_site5327]”, the “gcPBM binding intensity (ln)” value was 7.67 ± 0.59.
For “TACTTATTAGACTATTGTACATACATTATTAATATT [XGTACX_site7849]”, the “gcPBM binding intensity (ln)” value was 8.1 ± 0.52.
For “TAAAAAATTAAGCAACGTACAAATGAAAAGTATAAT [XGTACX_site1058]”, the “gcPBM binding intensity (ln)” value was 8.18 ± 0.66.
With “GAAAAACAAATATATTAACACACAAACATATAAACA [CACACA_site9315]” the “gcPBM binding intensity (ln)” value was 7.92 ± 0.66.
For “ATAAAATCAACAAATCAGGATGTCACGTAAATATCA [CACACA_negctrl_site1009]”, the “gcPBM binding intensity (ln)” value was 7.79 ± 0.49.
For “AAATATTGTTTTTTATGTACTTATTTTTATTTATTT [XGTACX_site3481]”, the “gcPBM binding intensity (ln)” value was 7.86 ± 0.47.
“ATGAAAAAGTGCTGGATTCTAAAGAAAAAAAAAAAA [CACACA_negctrl_site962]” was tested, and the “gcPBM binding intensity (ln)” value was 8.16 ± 0.75.
With ATATTTTATATATTTGTGCACAATATTATAATATAT the “gcPBM binding intensity (ln)” value was 11.04 ± 0.049.
In the case of “TTACATATATTGGGGTGTACATATATTTTCCTTCAC [XGTACX_site6224]”, the “gcPBM binding intensity (ln)” value is reported as 8.32 ± 0.72.
With “AAAAAAAAAAAAAAAAGTACACATAATTGTATATGT [XGTACX_site6339]” the “gcPBM binding intensity (ln)” value was 8.6 ± 0.41.
For “GTTATATGAACTTATATACACACCATTTTTGTAAAT [CACACA_site695]”, the “gcPBM binding intensity (ln)” value was 7.75 ± 0.63.
With “AAATCATATTCTTATTTTATTTTTTTTATTTTTTAT [XGTACX_negctrl_site166]” the “gcPBM binding intensity (ln)” value was 7.47 ± 0.6.
With “TGTAGATATTTTTGGGGTACTTTATAAAGAACTAGT [XGTACX_site5635]” the “gcPBM binding intensity (ln)” value was 8.19 ± 0.15.
For “TCAACTTGATTTATATGTACACATATAAGTAATTAT [XGTACX_site1798]”, the “gcPBM binding intensity (ln)” value was 7.79 ± 0.49.
For “ACGTTAGGCTTATTTGCACACTTGTATTAAAATTTT [CACACA_site4854]”, the “gcPBM binding intensity (ln)” value was 9.83 ± 0.014.
In the case of “AAAAATATGCTTCCATGTACTTAAAAAAAAAATTTA [XGTACX_site3617]”, the “gcPBM binding intensity (ln)” value is reported as 7.58 ± 0.37.
In the case of “TATACAAACTATGATGCACACATATATATATGTATA [CACACA_site8327]”, the “gcPBM binding intensity (ln)” value is reported as 8.9 ± 0.092.
With “AAAAAAAATTTTCTTCTGTTGTATTTTTTATACGTT [GTGCAC_negctrl_site477]” the “gcPBM binding intensity (ln)” value was 7.49 ± 0.77.
For “AAAAAAAAGAAAAAAACACACAATGGAAAAAATGTA [CACACA_site3675]”, the “gcPBM binding intensity (ln)” value was 7.49 ± 0.76.
In the case of “TATTTAGAAATAAATACACACATACATTTTTGTATA [CACACA_site4557]”, the “gcPBM binding intensity (ln)” value is reported as 7.44 ± 0.31.
“GTTTATTTTTTCATTTGTACACATAAATAAATATAT [XGTACX_site7752]” was tested, and the “gcPBM binding intensity (ln)” value was 8.23 ± 0.42.
In the case of “TTAATTATATTATGCACACACAATTGGAAAAAAAAT [CACACA_site1958]”, the “gcPBM binding intensity (ln)” value is reported as 9.65 ± 0.26.
In the case of “GGTATATATTCTATCACACATATTTCCATGAAAATA [CACACA_site4728]”, the “gcPBM binding intensity (ln)” value is reported as 8.06 ± 0.44.
“ATAGATATAACATATGCATGTAAAATATAACCACTC [TGCATGCA_site60]” was tested, and the “gcPBM binding intensity (ln)” value was 8.1 ± 0.61.
For “TATTTTGTATTCATTTGTCACATATAATAGATAGGA [TGCATGCA_negctrl_site9]”, the “gcPBM binding intensity (ln)” value was 7.93 ± 0.61.
“AATATATGTATATCCACACACATATATATATATATA [CACACA_site1633]” was tested, and the “gcPBM binding intensity (ln)” value was 9.22 ± 0.52.
With “TGTGCGGAAATAAGTGCACACATAGATATATGTATT [CACACA_site9227]” the “gcPBM binding intensity (ln)” value was 10.7 ± 0.5.
With “TTATACGAAGTACGTACACACACTTATATGTTACTA [CACACA_site4019]” the “gcPBM binding intensity (ln)” value was 8.31 ± 0.26.
AATAAATAGAAAGAGGTGCTACATTATATTATTTAT was tested, and the “gcPBM binding intensity (ln)” value was 8.73 ± 0.3.
With “TAATAAATGACAAATTAACACACATATATTATATAT [CACACA_site9294]” the “gcPBM binding intensity (ln)” value was 7.57 ± 0.51.
With “CGCTCTCTTTAATATTGTACATATATATTATATATA [XGTACX_site7017]” the “gcPBM binding intensity (ln)” value was 7.88 ± 0.59.
For “ATAAATCAAATGCACACACACAAAAAAAAAAAAAAA [CACACA_site6221]”, the “gcPBM binding intensity (ln)” value was 9.31 ± 0.16.
In the case of “TACAAAAATATATAAACACACAAATATAATATATAT [CACACA_site2942]”, the “gcPBM binding intensity (ln)” value is reported as 7.79 ± 0.57.
“TATATATAATATTTTTCACACACCATTTCCTTAAAC [CACACA_site1341]” was tested, and the “gcPBM binding intensity (ln)” value was 8.06 ± 0.4.
For “TTTTTTTTTTTTTTTTGTACATAATAAATGTTCTTA [XGTACX_site6754]”, the “gcPBM binding intensity (ln)” value was 8.16 ± 0.57.
For “TGTATCTATAATAAAACACACATTTTTAATGTGCTC [CACACA_site6788]”, the “gcPBM binding intensity (ln)” value was 7.42 ± 0.49.
“GGATAATCATACGAAGCATGCTGAATTTCCAAATAA [TGCATGCA_site1013]” was tested, and the “gcPBM binding intensity (ln)” value was 7.49 ± 0.79.
“AAAAAAATTAAATGGGGTACAATAAGGGTCAAATAT [XGTACX_site8669]” was tested, and the “gcPBM binding intensity (ln)” value was 8.44 ± 0.66.
“AAAAAAAAAAATGGCTGTACATAATATTTAAATAGG [XGTACX_site4286]” was tested, and the “gcPBM binding intensity (ln)” value was 8.02 ± 0.43.
With “TTTTATTATATATATTGTACATATATTTTTATTTTT [XGTACX_site1564]” the “gcPBM binding intensity (ln)” value was 7.7 ± 0.59.
With “ATATTTATAACTTGGTGTACTTTGAAAAAAAAAAAA [XGTACX_site5194]” the “gcPBM binding intensity (ln)” value was 8.25 ± 0.83.
